In paper PMC4336329 (PLoS ONE, 2015):
About 2,200 (0.71%) of roughly 310,000 compounds showed an effect of 50% or more. Effects have a minus sign here. This is one part of the list.

Target: human ether-à-go-go-related gene (hERG) potassium channel (human, UniProt Q12809)
Assay: primary screen, population patch clamp on CHO cells stably expressing hERG
Experimental: Briefly, Chinese hamster ovary (CHO) cells stably expressing the hERG channel were dislodged from tissue culture flasks and dispensed into PPC plates. […] During the recording, background leak currents were estimated by a 100 ms step to -80 mV from an initial holding potential of -70 mV and subtracted from the subsequent current measurement. The campaign was conducted in two phases using slight differences in recording protocol. In the first phase, the initial voltage pulse used a 100 ms step to -30 mV from a holding potential of -70 mV, a 2 s conditioning step to +25 mV, and a 2 s test step to -30 mV. During the second phase of the screen, the potential during the conditioning step was raised to +45 mV. In both phases of the campaign, a secondary voltage pulse was applied using the same parameters as the second phase initial pulse. The initial and secondary pulses were applied in the absence of compound, and upon application of 1 μM and 10 μM test concentrations. Small molecule effects on hERG current density were quantified by […].

Sequence of human ether-à-go-go-related gene (hERG) potassium channel (Q12809 whole entry, looked up): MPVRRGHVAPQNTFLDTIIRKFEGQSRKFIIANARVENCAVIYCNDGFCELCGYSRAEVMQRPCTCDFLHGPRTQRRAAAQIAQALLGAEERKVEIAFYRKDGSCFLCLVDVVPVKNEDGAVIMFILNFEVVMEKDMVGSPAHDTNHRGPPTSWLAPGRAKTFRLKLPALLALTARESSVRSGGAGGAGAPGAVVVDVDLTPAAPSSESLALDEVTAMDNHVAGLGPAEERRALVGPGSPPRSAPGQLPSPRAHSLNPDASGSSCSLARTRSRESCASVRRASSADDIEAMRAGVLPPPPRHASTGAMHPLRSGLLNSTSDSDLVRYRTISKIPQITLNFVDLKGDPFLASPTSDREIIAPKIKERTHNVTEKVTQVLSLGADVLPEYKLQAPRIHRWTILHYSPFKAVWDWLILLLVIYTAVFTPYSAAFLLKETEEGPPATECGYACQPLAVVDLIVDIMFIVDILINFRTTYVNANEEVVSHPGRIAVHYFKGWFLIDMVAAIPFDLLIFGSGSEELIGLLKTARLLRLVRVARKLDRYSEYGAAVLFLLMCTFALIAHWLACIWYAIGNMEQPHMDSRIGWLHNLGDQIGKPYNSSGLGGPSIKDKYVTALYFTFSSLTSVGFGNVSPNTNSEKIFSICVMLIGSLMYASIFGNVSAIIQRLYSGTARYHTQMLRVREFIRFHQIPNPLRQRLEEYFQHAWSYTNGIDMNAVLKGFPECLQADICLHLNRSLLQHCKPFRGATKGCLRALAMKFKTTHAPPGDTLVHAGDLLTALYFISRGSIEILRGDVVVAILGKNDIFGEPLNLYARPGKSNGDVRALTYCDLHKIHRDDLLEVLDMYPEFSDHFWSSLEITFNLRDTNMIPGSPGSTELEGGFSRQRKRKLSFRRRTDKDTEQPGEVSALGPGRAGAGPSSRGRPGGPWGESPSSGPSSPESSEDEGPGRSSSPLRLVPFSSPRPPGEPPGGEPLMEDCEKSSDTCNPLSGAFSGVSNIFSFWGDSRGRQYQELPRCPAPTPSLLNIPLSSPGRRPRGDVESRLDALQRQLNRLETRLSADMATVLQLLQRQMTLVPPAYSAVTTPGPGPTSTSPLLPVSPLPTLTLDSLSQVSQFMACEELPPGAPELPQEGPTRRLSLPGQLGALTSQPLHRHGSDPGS

Row | SMILES | hERG current change (%, negative = inhibition) at 1uM [%]
1 | COc1cccc(CNC(=O)c2n[nH]c3ccccc23)c1 | 7.33
2 | C/C(=N\NC(=O)CNc1cccc(Cl)c1C)c1cccs1 | 9.86
3 | Cc1cc(C)c(SCCc2ccncc2)c(C)c1 | 17.9
4 | CC(=O)c1cccc(NC(=O)CSc2nnc(C(C)N(C)C)n2Cc2ccccc2)c1 (stereo not drawn) | 3.65
5 | CC1CCCCC1NC(=O)CN1CCN(S(=O)(=O)c2ccc(Br)s2)CC1 (stereo not drawn) | -1.28
6 | CS(=O)(=O)N1CCc2cc(-c3csc(NCC4CCCO4)n3)ccc21 (stereo not drawn) | -10.8
7 | COc1cccc(NC(=O)Nc2nc(-c3ccc(OC)c(OC)c3)cs2)c1 | 8.69
8 | CC(=O)c1cccc(N(CC(=O)NC2CCCCC2)C(=O)Cn2nnc(-c3ccccc3)n2)c1 | 4.53
9 | COc1ccccc1NC(=S)NNC(=O)c1ccc(Cl)cc1Cl | 2.04
10 | Cc1nc([N+](=O)[O-])cn1CC(=O)c1ccccc1 | 8.38
11 | Cc1ccc(NC(=O)Nc2ccc(F)cc2)cc1Cl | 12.9
12 | CC(C)(C)c1ccc(C(=O)NCC(=O)N/N=C/c2ccccc2OCC(=O)O)cc1 | 5.81
13 | CC(C)c1nc(C(=O)N2CCCC(CCC(=O)N(C)CCc3ccccn3)C2)cs1 (stereo not drawn) | 7.47
14 | COc1cc(C(Nc2ccccn2)c2c(NC(=O)c3ccco3)sc(C)c2C)cc(OC)c1OC (stereo not drawn) | 11.9
15 | CCOC(=O)Cc1csc(NC(=O)c2ccc(Br)s2)n1 | 3.65
16 | Cc1c(NC(=O)C(C)Oc2ccc(Br)cc2Cl)c(=O)n(-c2ccccc2)n1C (stereo not drawn) | -1.81
17 | CCCC(C)C(=O)OCC(=O)Nc1ccc(Br)cc1 (stereo not drawn) | 15.6
18 | CC(/C=N/NC(=O)c1cccc([N+](=O)[O-])c1)=C\c1ccccc1 | -1.74
19 | COc1ccccc1C(=O)NCCC(=O)Nc1ccncc1 | 9.89

Row | SMILES | hERG current change (%, negative = inhibition) at 1uM [%]
20 | Cc1cccc(NC(=O)CSc2nnc(-c3cc(C)[nH]n3)n2N)c1 | -6.53
21 | Fc1ccc(N2CCN(c3ccc4c(C(F)(F)F)cc(C(F)(F)F)nc4n3)CC2)cc1 | -3.42
22 | Cc1ccc(CSc2nc3c(c(N(C)C)n2)CCCC3)cc1 | 6.28
23 | Fc1ccccc1/C=N/Nc1nn[nH]n1 | 12.3
24 | O=C(CSc1cccc2cccnc12)OCC(=O)c1ccccc1 | 10.7
25 | COc1ccc(NC(=S)N(CCN2CCOCC2)C2CCN(C(C)=O)CC2)cc1Cl | 13.5
26 | Cc1ccc(-c2nnc(N3CCOCC3)c3ccccc23)cc1S(N)(=O)=O | 9.29
27 | O=C(NCc1cccnc1)c1ccccc1[N+](=O)[O-] | 4.95
28 | O=c1c(-c2ccccc2)n[nH]c2ccccc12 | 5.62
29 | Cc1ccc(C(=O)N2CC(C)CC(C)C2)cc1S(=O)(=O)N1CCCCC1 (stereo not drawn) | -1.96
30 | COc1ccc(NC(=O)c2cccs2)cn1 | 9.61
31 | N#C/C(=C\c1ccc(O)cc1)c1nc2ccccc2o1 | 12.5
32 | CC1=CC2=NC(=O)/C(=C/c3cccs3)C(=N)N2O1 | 15.4
33 | CC(=O)Oc1ccc(-n2c(=O)c3ccccc3c3ccccc3c2=O)cc1 | 5.02
34 | c1cnc(Oc2ccc(-c3nnco3)cc2)cn1 | 15.2
35 | Cn1c(N)c(C(=O)N/N=C/c2ccccc2)sc1=S | 17.7
36 | CCCc1nc2ccccc2c(=O)n1NC(=O)c1c(O)c2ccccc2n(C)c1=O | 13.4
37 | CCOC(=O)Cn1c(=O)n(CC(=O)OCC)c2ccccc21 | 8.05
38 | Cc1ccc(NC(=O)CSCC(=O)O)cc1 | 13.4

Row | SMILES | hERG current change (%, negative = inhibition) at 1uM [%]
39 | O=C(NCCCN1CCCCC1)c1ccc2c(c1)NC(=O)C(N1CCCCC1)S2 (stereo not drawn) | 11.5
40 | COc1ccc(NC(=O)CS(=O)(=O)c2cn(CC(=O)N(C(C)C)C(C)C)c3ccccc23)c(OC)c1 | 0.846
41 | Cc1ccc(C2(C)NC(=O)N(CC(=O)NCc3ccccc3Cl)C2=O)cc1 (stereo not drawn) | 15.4
42 | CC(=O)c1cccc(Nc2nc(=O)c3cccnc3s2)c1 | 3.65
43 | CC(C)Oc1ccc(S(=O)(=O)N2CCCCC2)cc1NC(=O)CN1C(=O)NC(C)(C2CC2)C1=O (stereo not drawn) | -1.38
44 | Cc1ccc(S(=O)(=O)N2CCN(C(=O)CC(C)(C)C)CC2)cc1 | 16.1
45 | O=C(O)COCC(=O)Nc1ccc2c(c1)oc1ccccc12 | 15.3
46 | O=C(NCCCN1CCOCC1)c1ccc(Sc2ccccc2Cl)c([N+](=O)[O-])c1 | -1.38
47 | O=C1C(=Nc2cccc(Cl)c2)CC(c2ccc(Cl)cc2)N1c1cccc(Cl)c1 (stereo not drawn) | 13.4
48 | O=C(Cc1ccccc1)OCCNC(=O)c1ccc[nH+]c1.[Cl-] | -0.498
49 | CC(C)(C)NC(=O)C(c1ccco1)N(C(=O)c1ccc(CN2CCOCC2)o1)c1ccccc1 (stereo not drawn) | 0.327
50 | NC(=O)c1ccc(NC(=O)COC(=O)c2ccc(Cl)nc2)cc1 | 3.44
51 | Cc1cc(C)cc(NC(=O)CSc2nnc(-c3ccncc3)o2)c1 | -0.778
52 | O=C(c1ccco1)C(O)c1ccco1 (stereo not drawn) | 12.6
53 | O=C(NCCCn1ccnc1)c1csc2ccccc12 | -9.4
54 | CCN(CC)S(=O)(=O)c1ccc(OC)c(NC(=O)c2cc3c(=O)n4ccccc4nc3s2)c1 | 10.6
55 | O=C(COc1ccc(F)cc1)N1CCC(Cc2ccccc2)CC1 | 9.54
56 | CN(CC(=O)Nc1ccc(F)cc1)C(=O)COC(=O)c1cc([N+](=O)[O-])ccc1N1CCOCC1 | -11.6
57 | CCCS(=O)(=O)N1CCN(Cc2ccccc2OCC)CC1 | -4.4
